The supplement of paper PMC4604168 (melanoma cell lines)
Some of the results follow. Repeats are few or missing, and single values can be far off.

What was measured:
Test in all cases: cell count relative to DMSO control; melanoma cells; higher = more viable cells
Conditions in all cases: library dose: low library concentration; 72 h
MZ2-MEL = tested on: MZ2-MEL
MeWo = tested on: MeWo
RPMI7951 = tested on: RPMI7951
RVH-421 = tested on: RVH-421
SkMel28 = tested on: SkMel28
SkMel2 = tested on: SkMel2
SkMel30 = tested on: SkMel30
SkMel5 = tested on: SkMel5
UACC257 = tested on: UACC257
UACC62 = tested on: UACC62
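Also: cell number obtained by counting DAPI-stained nuclei in high-throughput microscope images with image analysis software, screen run in 1,536-well plates.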

Row | Compound | cell count (MZ2-MEL) [%] | cell count (MeWo) [%] | cell count (RPMI7951) [%] | cell count (RVH-421) [%] | cell count (SkMel28) [%] | cell count (SkMel2) [%] | cell count (SkMel30) [%] | cell count (SkMel5) [%] | cell count (UACC257) [%] | cell count (UACC62) [%]
1 | COc1ccc(C2=N[C@@H](c3ccc(Cl)cc3)[C@@H](c3ccc(Cl)cc3)N2C(=O)N2CCNC(=O)C2)c(OC(C)C)c1 [Nutlin-3] + Cc1cc(SCc2sc(-c3ccc(C(F)(F)F)c(F)c3)nc2C)ccc1OCC(=O)O [GW0742] (first compound 0.1 µM, partner dose 2 µM) | 98.9 | 99.4 | 98.5 | 103 | 89.6 | 93 | 82.9 | 92.3 | 101 | 97.3
2 | Cc1cn(-c2cc(NC(=O)c3ccc(C)c(Nc4nccc(-c5cccnc5)n4)c3)cc(C(F)(F)F)c2)cn1 [nilotinib] + C/C(O)=C(\C#N)C(=O)Nc1cc(Br)ccc1Br [LFM-A13] (first compound 0.2 µM, partner dose 2 µM) | 93.1 | 86.6 | 75.3 | 111 | 88 | 86.6 | 94.5 | 100 | 98.5 | 107
3 | CNC(=O)c1cc(Oc2ccc(NC(=O)Nc3ccc(Cl)c(C(F)(F)F)c3)cc2)ccn1 [sorafenib] + C/C(O)=C(\C#N)C(=O)Nc1cc(Br)ccc1Br [LFM-A13] (first compound 0.4 µM, partner dose 2 µM) | 91.1 | 109 | 86.5 | 91.4 | 79.2 | 98.9 | 101 | 98.3 | 95.3 | 92.3
4 | Cn1sc(=O)n(Cc2ccccc2)c1=O + C/C(O)=C(\C#N)C(=O)Nc1cc(Br)ccc1Br [LFM-A13] (first compound 0.4 µM, partner dose 2 µM) | 92.3 | 96.7 | 94.6 | 122 | 95.2 | 102 | 95.1 | 92.1 | 81.3 | 101
5 | CCCS(=O)(=O)Nc1ccc(F)c(C(=O)c2c[nH]c3ncc(Cl)cc23)c1F + O=C(Oc1ccc([N+](=O)[O-])cc1)N1CCC(C(O)(c2ccc3c(c2)OCO3)c2ccc3c(c2)OCO3)CC1 [JZL184] (first compound 0.08 µM, partner dose 1 µM) | 84.2 | 95.3 | 125 | 77.7 | 85.3 | 90.2 | 93.8 | 107 | 81.2 | 62.2
6 | CC1(C)CCC(c2ccc(Cl)cc2)=C(CN2CCN(c3ccc(C(=O)NS(=O)(=O)c4ccc(N[C@H](CCN5CCOCC5)CSc5ccccc5)c(S(=O)(=O)C(F)(F)F)c4)cc3)CC2)C1 + C/C(O)=C(\C#N)C(=O)Nc1cc(Br)ccc1Br [LFM-A13] (first compound 0.4 µM, partner dose 2 µM) | 94.3 | 76.3 | 45.4 | 68.9 | 77.4 | 85.6 | 54.1 | 51.3 | 58.7 | 63.1
7 | COc1ccc(C2=N[C@@H](c3ccc(Cl)cc3)[C@@H](c3ccc(Cl)cc3)N2C(=O)N2CCNC(=O)C2)c(OC(C)C)c1 [Nutlin-3] + O=C(Oc1ccc([N+](=O)[O-])cc1)N1CCC(C(O)(c2ccc3c(c2)OCO3)c2ccc3c(c2)OCO3)CC1 [JZL184] (first compound 0.1 µM, partner dose 1 µM) | 94.7 | 112 | 95.8 | 81.9 | 87.2 | 86.5 | 79.2 | 81.3 | 88.8 | 85.3
8 | O=C(O)[C@@H]1[O][Sb](=[O])([O][Sb]2(=[O])[O][C@H]([C@H](O)CO)[C@H](O)[C@H](C(=O)O)[O]2)[O][C@H]([C@H](O)CO)[C@@H]1O (some centres not stated) [stibogluconate] + O=C(Oc1ccc([N+](=O)[O-])cc1)N1CCC(C(O)(c2ccc3c(c2)OCO3)c2ccc3c(c2)OCO3)CC1 [JZL184] (first compound 2 µM, partner dose 1 µM) | 94.7 | 101 | 108 | 95.3 | 105 | 102 | 90.4 | 92.5 | 83.6 | 88.4
9 | Cc1cc(Nc2cc(N3CCN(C)CC3)nc(/C=C/c3ccccc3)n2)n[nH]1 + O=C(Oc1ccc([N+](=O)[O-])cc1)N1CCC(C(O)(c2ccc3c(c2)OCO3)c2ccc3c(c2)OCO3)CC1 [JZL184] (first compound 0.04 µM, partner dose 1 µM) | 106 | 107 | 90.2 | 96.3 | 90.8 | 91.2 | 84.7 | 104 | 118 | 114
10 | CC(=O)O[C@@]12CO[C@@H]1C[C@H](O)[C@@]1(C)C(=O)[C@H](O)C3=C(C)[C@@H](OC(=O)[C@H](O)[C@@H](NC(=O)OC(C)(C)C)c4ccccc4)C[C@@](O)([C@@H](OC(=O)c4ccccc4)[C@H]21)C3(C)C [Docetaxel] + N.N.[Cl][Pt][Cl] [cisplatin] (first compound 0.0001 µM, partner dose 1.6 µM) | 50.2 | 46.8 | 52.5 | 55.2 | 57.7 | 47.7 | 41.7 | – | – | 39.5
11 | C[C@@H](N)c1ccc(C(=O)Nc2ccnc3[nH]ccc23)cc1 + N.N.[Cl][Pt][Cl] [cisplatin] (first compound 0.4 µM, partner dose 1.6 µM) | 70.6 | 74.7 | 75.4 | 73.2 | 84.9 | 96.8 | 113 | – | – | 88.6
12 | CCCCCCCCCCCCCCCCCCOP(=O)([O-])OC1CC[N+](C)(C)CC1 [Perifosine] + N.N.[Cl][Pt][Cl] [cisplatin] (first compound 0.4 µM, partner dose 1.6 µM) | 92.8 | 103 | 75.8 | 97 | 99.8 | 104 | 109 | – | – | 87.1
13 | N#CC[C@H](C1CCCC1)n1cc(-c2ncnc3[nH]ccc23)cn1 [ruxolitinib] + N.N.[Cl][Pt][Cl] [cisplatin] (first compound 1 µM, partner dose 1.6 µM) | 96.9 | 84 | 84.6 | 85.8 | 102 | 100 | 89.3 | – | – | 98.1
14 | O=C(Nc1cc(C(F)(F)F)cc(C(F)(F)F)c1)c1cc(Cl)ccc1O + N.N.[Cl][Pt][Cl] [cisplatin] (first compound 0.016 µM, partner dose 1.6 µM) | 97.9 | 106 | 94.1 | 86.2 | 130 | 90.8 | 110 | – | – | 113
15 | Cc1cn(-c2cc(NC(=O)c3ccc(C)c(Nc4nccc(-c5cccnc5)n4)c3)cc(C(F)(F)F)c2)cn1 [nilotinib] + N.N.[Cl][Pt][Cl] [cisplatin] (first compound 0.2 µM, partner dose 1.6 µM) | 83.8 | 107 | 79.8 | 94.8 | 78.1 | 86.1 | 83.5 | – | – | 94
16 | NC(=O)c1ccc(N(C(N)=O)c2c(F)cccc2F)nc1-c1ccc(F)cc1F + C[As](C)SC[C@H](NC(=O)CC[C@H](N)C(=O)O)C(=O)NCC(=O)O [Darinaparsin] (first compound 0.4 µM, partner dose 0.4 µM) | 117 | 78.7 | 100 | 89.1 | 102 | 98.6 | 92.5 | – | – | 95.8
17 | COc1cc([C@@H]2c3cc4c(cc3[C@@H](O[C@@H]3O[C@@H]5CO[C@@H](C)O[C@H]5[C@H](O)[C@H]3O)[C@H]3COC(=O)[C@H]23)OCO4)cc(OC)c1O [etoposide] + C[As](C)SC[C@H](NC(=O)CC[C@H](N)C(=O)O)C(=O)NCC(=O)O [Darinaparsin] (first compound 0.02 µM, partner dose 0.4 µM) | 94.6 | 104 | 111 | 83.2 | 91.1 | 84.1 | 91.4 | – | – | 83.6
18 | Nc1nc(F)nc2c1ncn2[C@@H]1O[C@H](CO)[C@@H](O)[C@@H]1O [fludarabine] + C[As](C)SC[C@H](NC(=O)CC[C@H](N)C(=O)O)C(=O)NCC(=O)O [Darinaparsin] (first compound 0.2 µM, partner dose 0.4 µM) | 105 | 24.7 | 73.2 | 85.2 | 66.1 | 5.11 | 16.6 | – | – | 78.6
